Measured values as given in PubChem BioAssay AID624171 (National Center for Advancing Translational Sciences (NCATS), 2012).
The campaign covered roughly 410,000 compounds. About 1,200 (0.29%) were called active. This list was built around the results that the source calls inconclusive (neither active nor inactive); the mix of calls is not that of the screen. Calls come from the whole dose curve; as a rule, active = well fitted activation curve with a large enough effect; inconclusive = small, poorly fitted or top-dose-only effect; inactive = flat fitted curve, though single readings scatter. Potencies of inconclusive entries are doubtful fits and often do not repeat.

Assay: qHTS of Nrf2 Activators; note: nearly all actives have a fitted effect of over 65% in size
Details: AREc32 ARE-luciferase reporter (MCF7-derived line), luminescence, 24 h; series mostly up to 46.1 µM
Method in brief: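 Each well held 1000 AREc32 cells, which were incubated with compound for 24 hr at 37 deg C after overnight attachment, and ARE reporter activity was quantified by firefly luciferase luminescence.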
Potency is the fitted concentration of half-maximal effect; tags give direction and shape of the fitted curve.

SMILES | Potency
Cn1c(CN2CCN(C(=O)c3ccccc3)CC2)nc2cc([N+](=O)[O-])ccc21 | inconclusive: 31.6 µM [activator, single point]
O=C(NC1CCSc2ccccc21)c1cc([N+](=O)[O-])ccc1N1CCOCC1 (configuration not stated) | inactive
O=C1/C(=C/c2ccccc2)SC(=S)N1C1CCS(=O)(=O)C1 (configuration not stated) | inconclusive: 11.2 µM [activator, partial curve]
O=C(CN1C(=O)C2CCCCC2C1=O)Nc1cccc([N+](=O)[O-])c1 (configuration not stated) | inconclusive: 17.8 µM [activator, single point]
O=C(/C=C/c1cn(CC(O)CN2CCCCC2)c2ccccc12)c1cccs1 (configuration not stated) | inconclusive: 31.6 µM [activator, single point]
Cc1cc(-c2ccccc2)n(-c2ccccc2)n1 | inactive
O=C(c1ccccc1Br)N1CCN(c2ccc([N+](=O)[O-])c(N3CCOCC3)c2)CC1 | inactive
COc1cccc(C2=CC(c3cccc(OC)c3OC)n3nnnc3N2)c1 (configuration not stated) | inconclusive: 20 µM [activator, single point]
O=[N+]([O-])/C=C/c1cn(Cc2ccc(Cl)cc2)c2ccccc12 | inactive
O=C(NNc1cccc(Cl)n1)c1c(Cl)cccc1Cl | inconclusive: 17.8 µM [activator, single point]
COc1cc(SC)ccc1C(=O)Nc1ncc(C)s1 | inactive
O=C(N/N=C/c1ccccn1)c1sc2ccccc2c1Cl | inconclusive: 22.4 µM [activator, single point]
Cc1ccc(CS(=O)(=O)c2ncc(Cl)c(C(=O)Nc3nc4ccc(F)cc4s3)n2)cc1 | inconclusive: 11.2 µM [activator, single point]
CCC(=O)Nc1nnc(CCc2ccccc2)s1 | inactive
CCN(CC)c1ccc(/C=C2\C(=O)N(c3nnc(C)c(=O)[nH]3)N=C2C)cc1 | inconclusive: 31.6 µM [activator, single point]
CNC(=O)C1CCC(Cn2c(=O)c3sccc3n(CC(=O)NCc3ccc(F)cc3)c2=O)CC1 (configuration not stated) | inactive
CCCn1c(CC)nc([N+](=O)[O-])c1Sc1ccc(C)cc1 | inconclusive: 22.4 µM [activator, single point]
COc1ccc(OC)c(C(=O)COC(=O)c2ccc([N+](=O)[O-])o2)c1 | inconclusive: 17.8 µM [activator, single point]
NS(=O)(=O)c1ccc(NC(=O)COC(=O)c2cc(Cl)ccc2[N+](=O)[O-])cc1 | inconclusive: 15.8 µM [activator, single point]
O=c1c(N2CCc3ccccc3C2)csc2ccccc12 | inconclusive: 17.8 µM [activator, single point]
COC(=O)c1c(C)oc2ccc(N(C(=O)c3ccncc3)S(=O)(=O)c3ccc(C)cc3)cc12 | inactive
COc1ccccc1-c1nc(S(=O)(=O)c2ccccc2)c(N2CCCCC2)o1 | inactive
Cc1cc(C)nc(NN=CC2=C(N3CCOCC3)/C(=C/c3ccc(Cl)cc3)CC2)n1 | inconclusive: 22.4 µM [activator, single point]
Fc1ccc(-c2cn3cc(Cc4ccc(Cl)cc4)sc3n2)cc1 | inactive
COc1ccc(C(=O)/C=C/c2ccsc2)cc1CSCC(=O)O | inconclusive: 31.6 µM [activator, single point]
CCC(=O)Oc1ccc2c(C)cc(=O)oc2c1C | inactive

SMILES | Potency
O=C1[C@@H]2Cc3ccccc3CN2C(=O)N1c1cccc(F)c1 | inactive
N/C(=N\OC(=O)COc1ccc2ccccc2c1Br)c1ccccn1 | inactive
CCc1cc(C(=O)Nc2ccc(C)cc2Br)cs1 | inconclusive: 17.8 µM [activator, partial curve, poor fit]
Nc1c(Cl)ncnc1N/N=C/c1ccc2ccccc2n1 | inconclusive: 31.6 µM [activator, single point]
CCOc1c(Cl)cc(CNC(C)(C)CC(C)(C)C)cc1OC | inactive
Nc1ccccc1C(=O)NCc1ccccc1 | inactive
Clc1ccc2oc(-c3ccccc3)cc(=NCCCN3CCOCC3)c2c1 | active: 12.6 µM
Cc1cccc(-c2nnc(-c3cccc4ccccc34)o2)c1 | inconclusive: 5.62 µM [activator, partial curve, poor fit]
Cc1sc(NC(=O)c2ccco2)nc1-c1ccccc1 | inconclusive: 1.78 µM [activator, full curve, poor fit]
Cc1ccc(CNC(=O)c2ccc3c(O)c(S(=O)(=O)c4ccccc4)c(=O)[nH]c3c2)cc1 | inactive
Cc1cc(C(=O)NNC(=O)c2ccc(F)cc2)c(C)s1 | inconclusive: 15.8 µM [activator, single point]
CC(=O)Oc1ccc(OC(C)=O)c(SCCCCCCl)c1 | inconclusive: 22.4 µM [activator, single point]
Cc1cc(C)c(C#N)c(SCCS(=O)(=O)c2ccc(Cl)cc2)n1 | inconclusive: 17.8 µM [activator, single point]
COC(=O)c1c(-c2ccc(Cl)cc2)noc1N1CCN(c2cc(C)ccc2C)CC1 | inactive
O=C1CS(=O)(=O)C2(C(=O)N(Cc3ccccc3Cl)c3ccccc32)N1c1ccc(F)cc1 (configuration not stated) | inactive
COc1ccccc1/C=C/C(=O)Oc1cccc2cccnc12 | inconclusive: 20 µM [activator, single point]
Cc1cccc(Cn2c(=O)n3nc(-c4ccccc4)nc3c3ccccc32)c1 | inactive
CCN(CC)CCNC(=O)c1ccc(NC(=O)/C=C/c2ccc3ccccc3n2)cc1 | inconclusive: 28.2 µM [activator, single point]
Cc1c(C(=O)Nc2ccc(Cl)cn2)oc2ccccc12 | inconclusive: 7.94 µM [activator, partial curve, poor fit]
CC1CCN(C(=O)COC(=O)CCCN2C(=O)c3cccc4cccc(c34)C2=O)CC1 | inconclusive: 14.1 µM [activator, single point]
Cc1cc2nc3n(c2cc1C)CC1CC(C(=O)NCC2CC2)N(C)C31 (configuration not stated) | inactive
CCOc1ccc(/C=C/C(=O)c2ccccc2)cc1OC | inconclusive: 22.4 µM [activator, single point]
CCCCCCCC(=O)NNC(=O)Cc1ccccc1 | inactive
CCC(CNc1cc(OC)cc2cccnc12)NC1CCCCC1 (configuration not stated) | inactive
Cc1ccc(CNc2nc3cc(-c4ccccc4)sc3c(=O)n2C)c(C)c1 | inactive
COc1ccc2cc(C(=O)N3CCN(c4ccccc4OC)CC3)[nH]c2c1 | inactive

SMILES | Potency
CCCN(Cc1ccccc1)C(=S)Nc1cccc(C(F)(F)F)c1 | inactive
C=CC(=O)N1c2ccccc2Sc2ccc(NC(=O)OCC)cc21 | inconclusive: 20 µM [activator, partial curve, poor fit]
O=C(OC1CCOC1=O)c1ccccc1C(=O)c1ccc(Cl)c([N+](=O)[O-])c1 (configuration not stated) | inconclusive: 22.4 µM [activator, single point]
O=C(Nc1ccc(Cl)cc1F)c1ccccc1Br | inconclusive: 35.5 µM [activator, single point]
O=C(Nc1cccc2ccccc12)OC1C=CS(=O)(=O)C1 (configuration not stated) | inconclusive: 22.4 µM [activator, single point]
CCN(CC(=O)NCc1cccs1)c1nnnn1-c1ccccc1 | inconclusive: 20 µM [activator, single point]
CC1(C)CC(=O)C2=C(C1)Oc1nc3ccccc3cc1C2C(C#N)C#N (configuration not stated) | active: 7.08 µM
O=C(C=Cc1ccc2c(c1)OCO2)C1CC1 | inconclusive: 20 µM [activator, single point]
Oc1ccc(C2Nc3cccc4cccc(c34)N2)c(O)c1 | inconclusive: 31.6 µM [activator, single point]
O=C(Nc1cc(Cl)ccc1O)c1cc(-c2ccco2)on1 | active: 6.31 µM
COc1ccc(C=CC(=O)C=CC=Cc2ccccc2)cc1 | inconclusive: 15.8 µM [activator, single point]
CC(C)NC(=O)C1CCN(c2ccc(S(=O)(=O)N3CCOCC3)cc2Cl)CC1 | inactive
NC(=O)NC(=O)C(c1ccccc1)N1CCN(S(=O)(=O)Cc2ccccc2)CC1 (configuration not stated) | inactive
C=C1c2cc3c(cc2NC(=S)N1Cc1ccccc1)OCO3 | inconclusive: 28.2 µM [activator, single point]
Cc1nsc(Nc2ccccc2)c1C#N | inconclusive: 11.2 µM [activator, partial curve]
O=C(Nc1cccc2ccccc12)/C(Cl)=C/c1ccccc1 | active: 10 µM
Cc1ccsc1/C=N/N=C/c1sccc1C | inconclusive: 11.2 µM [activator, partial curve]
C#CCOc1ccc(/C=C2\SC(=S)N(Cc3cccnc3)C2=O)cc1 | inconclusive: 4.47 µM [activator, full curve, poor fit]
CC(C)Cn1c(N)c(C(=O)COC(=O)/C=C/c2ccccc2)c(=O)n(C)c1=O | inactive
Cc1ccc(-c2nc(CS(=O)(=O)CC(=O)NCCN3CCCC3)c(C)o2)cc1 | inactive
CC(=O)c1ccc(NC(=O)Cn2c(=O)nc(-c3ccccc3)c3cc(Cl)ccc32)cc1 | inactive
O=C(NNC(=O)c1cc(Cl)ccc1[N+](=O)[O-])c1csc(N2CCOCC2)n1 | inactive
O=C1C(Cl)=C(NCC2CCCO2)C(=O)N1CCc1ccccc1 (configuration not stated) | inconclusive: 15.8 µM [activator, single point]
Cc1cc(C)c(C(N)=O)c(SCC(=O)c2cc(C)n(-c3cc(C)on3)c2C)n1 | inactive
COc1ccc(NC(=O)Cn2ncc(Cl)c(Cl)c2=O)cc1S(=O)(=O)N1CCOCC1 | inconclusive: 3.16 µM [activator, partial curve, poor fit]
